Results published in the supplement of paper PMC4166925.
± gives the standard deviation of the averaged measurements. In all, about 33,000 sequences were measured (“E-score (dimensionless, -0.5 to 0.5)”: median about -0.049, highest 2% from about 0.37 on). The list shows a part of the results.

tested on: T1, PmTbr T-box DNA-binding domain (GST fusion); experiment: PBM E-score of 8-mer (E-score (dimensionless, -0.5 to 0.5)); Tbr is Tbrain of the sea star Patiria miniata (Pm) or the sea urchin Strongylocentrotus purpuratus (Sp); higher = stronger binding preference; most listed sequences are background and not binding sites; conditions: the construct has about 5 more residues each side
T1 sequence: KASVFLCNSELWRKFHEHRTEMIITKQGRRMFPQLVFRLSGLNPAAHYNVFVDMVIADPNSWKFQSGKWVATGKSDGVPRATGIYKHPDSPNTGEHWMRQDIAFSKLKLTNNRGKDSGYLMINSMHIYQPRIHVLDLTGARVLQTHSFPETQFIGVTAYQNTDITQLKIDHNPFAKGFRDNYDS
How it was run: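 GST-fused Tbr T-box DNA-binding domains (the whole T-box plus about five flanking residues) were expressed in BL21 E. coli at 20 °C and purified by glutathione affinity chromatography. Universal Agilent oligonucleotide arrays were made double-stranded by primer extension, incubated with 200 nM protein in PBS (pH 7.5), then scanned and quantified. Every ungapped 8-mer was scored from probe intensities. The Universal PBM Analysis Suite gave each word an enrichment E-score, averaged over duplicate arrays.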

Row | Sequence | PBM E-score of 8-mer
1 | CGACCGCC | -0.0124 ± 0.07
2 | AACACACG | 0.181 ± 0.03
3 | TATGTTCA | 0.0299 ± 0.016
4 | AGGCTGCC | -0.0922 ± 0.15
5 | CATACACC | 0.117 ± 0.0094
6 | AACGTTGA | -0.0245 ± 0.078
7 | TGCACCAA | 0.0214 ± 0.017
8 | CAAGGGTA | -0.0835 ± 0.064
9 | CGATTGTA | -0.019 ± 0.0059
10 | ATTGCCTC | -0.331 ± 0.024
11 | CGGGCGTC | 0.131 ± 0.047
12 | CTCGATTA | 0.042 ± 0.14
13 | AGCTAAAT | -0.0587 ± 0.0072
14 | ATATGGCC | -0.235 ± 0.066
15 | GAAAACTA | -0.0923 ± 0.082
16 | CGGAGAGC | -0.185 ± 0.021
17 | GGAAACAC | 0.0659 ± 0.019
18 | ACGTGGCT | -0.0363 ± 0.099
19 | AGAGTTGC | 0.0099 ± 0.0045
20 | GCAAGGCA | -0.139 ± 0.043
21 | TTGCTAAA | 0.241 ± 0.078
22 | GTCCGCCA | 0.0338 ± 0.083
23 | AATGCTTG | -0.0694 ± 0.082
24 | GCAGATGC | -0.278 ± 0.0035
25 | TCGTTGCA | -0.0903 ± 0.089

Row | Sequence | PBM E-score of 8-mer
26 | GGCCACAC | 0.325 ± 0.019
27 | CACAGGCG | 0.127 ± 0.027
28 | AAGCCAAT | -0.162 ± 0.051
29 | TAACAAAA | 0.0887 ± 0.083
30 | ACATTGTA | -0.048 ± 0.0027
31 | GCCGCAGA | -0.259 ± 0.034
32 | CATTTCAG | 0.0456 ± 0.033
33 | GCTCGCCA | 0.194 ± 0.0075
34 | ACTGGTAA | -0.134 ± 0.069
35 | GCTCCCAA | -0.0892 ± 0.012
36 | AGCAGTTG | 0.0881 ± 0.0054
37 | AAACGTGA | 0.229 ± 0.1
38 | CAACCTGC | 0.141 ± 0.026
39 | ACTACCGC | -0.0368 ± 0.039
40 | ACCGCGGC | -0.0821 ± 0.053
41 | CCCTTCGG | -0.192 ± 0.022
42 | AAGGCTCG | -0.054 ± 0.059
43 | TGCCTCAA | -0.18 ± 0.061
44 | AGACTCCC | -0.0857 ± 0.096
45 | CACTCCAC | 0.198 ± 0.027
46 | AGACTCCT | -0.263 ± 0.049
47 | ATCTAGGC | -0.309 ± 0.036
48 | TCACGAAA | 0.112 ± 0.057
49 | CGCCGGCC | -0.0282 ± 0.012
50 | ACGCTTCG | 0.205 ± 0.0048

Row | Sequence | PBM E-score of 8-mer
51 | ACTTTCTG | 0.0395 ± 0.063
52 | CGACGAAC | -0.0347 ± 0.042
53 | CGCTTATA | -0.0951 ± 0.075
54 | CGTCTTTC | -0.0275 ± 0.015
55 | AGATGCCC | -0.147 ± 0.025
56 | CTGTGTCA | 0.216 ± 0.027
57 | AAGCAAAG | -0.104 ± 0.017
58 | GCAGTAGA | -0.188 ± 0.018
59 | CGCGATCA | 0.2 ± 0.048
60 | CCTATTAC | -0.0634 ± 0.0018
61 | ACGTTTCT | -0.111 ± 0.046
62 | GCGAATGA | 0.172 ± 0.021
63 | AATCCAAC | -0.00751 ± 0.0064
64 | CTCTCCAC | 0.0374 ± 0.028
65 | ACGACCCT | -0.202 ± 0.013
66 | CACCTCTG | 0.4165 ± 0.00058
67 | AGGTGGTA | 0.415 ± 0.0043
68 | ATTTGGGC | -0.143 ± 0.011
69 | GCCGAGGC | 0.0489 ± 0.028
70 | CGTAGTTC | -0.0871 ± 0.059
71 | GGTTAAAC | -0.174 ± 0.034
72 | CGAGCACG | -0.23 ± 0.024
73 | AGCGAGAT | 0.0736 ± 0.074
74 | CTTAAGGC | -0.0813 ± 0.065
75 | ATCGCTTC | 0.0264 ± 0.017

Row | Sequence | PBM E-score of 8-mer
76 | GCAAACCA | -0.197 ± 0.063
77 | ACCCCGGT | -0.0222 ± 0.02
78 | ATCCTAGG | -0.256 ± 0.043
79 | CCTACAGA | 0.0375 ± 0.087
80 | AATGGGGT | 0.093 ± 0.0032
81 | CTGGAGCC | -0.205 ± 0.047
82 | CAGATCTC | -0.217 ± 0.028
83 | AGGCTCCC | -0.137 ± 0.013
84 | ATTTAGGC | 0.0122 ± 0.022
85 | AACCAAAC | -0.147 ± 0.023
86 | AGCACACC | 0.322 ± 0.036
87 | ACCAAAAA | -0.124 ± 0.021
88 | GAGTGAAA | 0.16 ± 0.1
89 | GACGTCTC | -0.235 ± 0.013
90 | ATCGTGCC | -0.0417 ± 0.072
91 | TCCAACCA | -0.211 ± 0.067
92 | ATCTAGGG | -0.0863 ± 0.01
93 | CTGAGCAA | -0.173 ± 0.0042
94 | CCTTGCAC | 0.218 ± 0.032
95 | GAGCGTAC | -0.248 ± 0.05
96 | ATTGCCAC | 0.279 ± 0.013
97 | AGCGATTA | -0.0486 ± 0.00081
98 | GAACGTTC | 0.0063 ± 0.12
99 | AGCCGAAG | -0.104 ± 0.011
100 | ATCCATGA | -0.298 ± 0.032

Row | Sequence | PBM E-score of 8-mer
101 | CAGGACCA | -0.117 ± 0.036
102 | CCGTGGCC | -0.129 ± 0.072
103 | CTGAAAAG | -0.0458 ± 0.018
104 | ATTATCCC | -0.08 ± 0.072
105 | ATGCGCAA | -0.0878 ± 0.083
106 | ACCAGCTA | 0.0355 ± 0.021
107 | ACTGCCCA | -0.0483 ± 0.017
108 | CGTGAAAG | 0.273 ± 0.013
109 | CCATAGGG | 0.016 ± 0.077
110 | CTAAGTGC | 0.237 ± 0.01
111 | TGCAAGCA | 0.017 ± 0.0014
112 | CGTCATTC | -0.064 ± 0.0071
113 | GTCTGCGA | 0.0222 ± 0.049
114 | AGATGATC | -0.0445 ± 0.035
115 | AGTCGTCG | 0.0279 ± 0.033
116 | CATGCCTC | -0.1979 ± 0.00083
117 | CATGCTCA | 0.00541 ± 0.032
118 | AGCCTTCG | -0.0545 ± 0.054
119 | CTAGCGGC | 0.04621 ± 0.00013
120 | GTAGCTAA | -0.0459 ± 0.12
121 | CAGGCAGA | -0.264 ± 0.089
122 | AGAGGGTG | 0.383 ± 0.011
123 | GCCGCGTA | -0.0412 ± 0.039
124 | AGTAGGCC | -0.261 ± 0.043
125 | AACTGGTC | -0.302 ± 0.037

Row | Sequence | PBM E-score of 8-mer
126 | CGAGGATA | -0.123 ± 0.041
127 | GAAGCGAC | 0.0681 ± 0.066
128 | AAGCCTAT | -0.165 ± 0.013
129 | ATCGTGGA | -0.0947 ± 0.04
130 | GCCTCAAA | -0.28 ± 0.021
131 | AACCAAGG | -0.254 ± 0.027
132 | AAAGGCGT | 0.265 ± 0.059
133 | GCTAAACA | 0.0395 ± 0.097
134 | CTATGCCA | 0.0639 ± 0.042
135 | CTGCAGGC | -0.111 ± 0.025
136 | CAACCACG | 0.0872 ± 0.014
137 | GGTTATAA | -0.0586 ± 0.011
138 | AATACTGT | -0.024 ± 0.036
139 | AACCTGAT | -0.0679 ± 0.035
140 | CACCGGCG | 0.0568 ± 0.031
141 | GGCAGAGA | -0.156 ± 0.013
142 | CCAGCTTA | -0.0765 ± 0.032
143 | AATATAAG | -0.306 ± 0.005
144 | TGACGCAA | 0.104 ± 0.043
145 | AACTGCAT | -0.201 ± 0.029
146 | CAATCCTC | -0.0492 ± 0.042
147 | ACGAATCA | -0.0839 ± 0.036
148 | CGGCCATC | -0.132 ± 0.016
149 | AATATGCT | 0.0157 ± 0.011
150 | AGTGGGGG | -0.167 ± 0.015

Row | Sequence | PBM E-score of 8-mer
151 | AGAAGTTG | 0.104 ± 0.03
152 | TAATGTGA | 0.244 ± 0.0076
153 | ATGGAGCC | -0.262 ± 0.049
154 | GTAGTTCA | -0.124 ± 0.098
155 | CAAGGCAC | -0.109 ± 0.0035
156 | CTGTGGAC | -0.104 ± 0.0043
157 | CCCCGGGC | -0.169 ± 0.02
158 | GTACCTGA | -0.259 ± 0.067
159 | TATAAGCA | -0.194 ± 0.072
160 | AAGCACTG | -0.0944 ± 0.03
161 | AACTCCTA | -0.0508 ± 0.039
162 | AGATATTG | -0.067 ± 0.026
163 | GAGGACTC | -0.29 ± 0.01
164 | CCGTTTGC | 0.0209 ± 0.077
165 | AGACGCAG | -0.11 ± 0.021
166 | CTTACCGC | -0.0899 ± 0.032
167 | ACTCAACA | 0.217 ± 0.016
168 | GGACCGCA | -0.126 ± 0.082
169 | CGTGAGGA | 0.142 ± 0.019
170 | CTACCAAC | -0.0221 ± 0.0059
171 | AGTTACCC | -0.0906 ± 0.018
172 | GACGCTGC | -0.109 ± 0.025
